From article PMC10480186

Target: DNAJB1, P25685
Test: dynamic light scattering; 30 µM protein in 20 mM Hepes-KOH pH 7.6, 50 mM KCl, 2 mM DTT; volume-based size distributions; the wt also with 300 mM NaCl, 5% 1,6-hexanediol or at 40 °C, which shift it to smaller particles; self-association: dimer and dimers to larger oligomers
Conditions: remark: other sources report otherwise

- stoichiometry N: 2
B1: DNAJB1 (natural protein)
chain: MGKDYYQTLGLARGASDEEIKRAYRRQALRYHPDKNKEPGAEEKFKEIAEAYDVLSDPRKREIFDRYGEEGLKGSGPSGGSGGGANGTSFSYTFHGDPHAMFAEFFGGRNPFDTFFGQRNGEEGMDIDDPFSGFPMGMGGFTNVNFGRSRSAQEPARKKQ[left out - about 150 residues]PERIPQTSRTVLEQVLPI
